In publication PMC2821452 (Synapse (New York, N.Y.), 2010):

Columns and labels:
[1] = molecular target: cloned human DOR (Homo sapiens, UniProt P41143); conditions: read-out: KI DOR; [125I]IOXY; mean±SD, n=3
[2] = molecular target: cloned human MOR (Homo sapiens, UniProt P35372); conditions: read-out: KI MOR; [125I]IOXY; mean±SD, n=3
[3] = molecular target: cloned human KOR (Homo sapiens, UniProt P41145); conditions: read-out: KI KOR; [125I]IOXY; mean±SD, n=3
Sequence of UniProt P41145 (P41145 whole entry): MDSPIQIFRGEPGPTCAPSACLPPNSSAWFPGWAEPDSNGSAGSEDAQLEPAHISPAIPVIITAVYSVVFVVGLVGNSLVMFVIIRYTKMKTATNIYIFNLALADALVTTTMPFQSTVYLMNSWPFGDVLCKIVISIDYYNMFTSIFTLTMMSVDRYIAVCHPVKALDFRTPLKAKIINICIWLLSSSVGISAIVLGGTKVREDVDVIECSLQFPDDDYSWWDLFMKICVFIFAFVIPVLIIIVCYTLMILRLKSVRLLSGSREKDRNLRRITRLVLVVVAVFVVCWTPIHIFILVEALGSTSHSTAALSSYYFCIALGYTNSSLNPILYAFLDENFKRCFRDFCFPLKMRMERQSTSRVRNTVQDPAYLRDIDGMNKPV

Sequence of UniProt P35372 (P35372 whole entry): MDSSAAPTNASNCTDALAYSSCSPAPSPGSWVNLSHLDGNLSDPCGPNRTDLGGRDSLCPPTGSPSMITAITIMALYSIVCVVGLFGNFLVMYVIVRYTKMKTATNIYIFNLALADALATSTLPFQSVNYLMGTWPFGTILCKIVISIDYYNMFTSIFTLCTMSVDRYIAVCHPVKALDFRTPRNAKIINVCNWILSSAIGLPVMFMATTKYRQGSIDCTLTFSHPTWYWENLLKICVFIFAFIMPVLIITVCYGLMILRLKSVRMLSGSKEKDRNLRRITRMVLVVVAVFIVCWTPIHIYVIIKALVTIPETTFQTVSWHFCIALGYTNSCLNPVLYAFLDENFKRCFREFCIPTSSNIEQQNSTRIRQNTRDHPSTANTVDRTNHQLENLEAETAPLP
Sequence of UniProt P41143 (P41143 whole entry): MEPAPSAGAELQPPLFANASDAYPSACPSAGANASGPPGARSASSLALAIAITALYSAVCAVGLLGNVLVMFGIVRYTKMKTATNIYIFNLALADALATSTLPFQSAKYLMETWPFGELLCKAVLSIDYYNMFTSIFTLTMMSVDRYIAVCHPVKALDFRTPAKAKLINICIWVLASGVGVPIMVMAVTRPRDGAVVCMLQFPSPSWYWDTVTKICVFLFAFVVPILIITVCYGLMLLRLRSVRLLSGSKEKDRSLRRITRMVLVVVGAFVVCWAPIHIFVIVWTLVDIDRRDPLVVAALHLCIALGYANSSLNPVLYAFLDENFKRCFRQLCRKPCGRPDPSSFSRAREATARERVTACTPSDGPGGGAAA

Q: Which Ki [1] does the source give for Oc1cccc([C@]23CCC[C@H](C2)N(C/C=C\c2ccccc2)CC3)c1 [KC-2-009, (+)-3-((1R,5S)-2-((Z)-3-Phenylallyl)-2-azabicyclo[3.3.1]nonan-5-yl)phenol hydrochloride] here?
A: Its Ki is 454 ± 25 nM.

Q: What about the Ki [2] of the same molecule?
A: Its Ki is 26 ± 2 nM.

Q: What about the Ki [3] of the same molecule?
A: The Ki was 123 ± 4 nM.

Structures can show the parent of a compound that is named as a salt.
